# The other results are listed elsewhere or left out.
# What was measured:
# Assay in all cases: glycan array binding signal (z-score within array); higher = stronger binding
# Conditions in all cases: glycan notation: IUPAC condensed, linker removed
# [1] = molecular target: Gal(b1-3)GlcNAc(b1-2)Man(a1-3)[Gal(b1-3)GlcNAc(b1-2)Man(a1-6)]Man(b1-4)GlcNAc(b1-4)GlcNAc
# Outline: (§1)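 Arrays were curated from the Consortium for Functional Glycomics database, 3228 in total, and kept only where the protein sequence was available. Binding is expressed as a within-array Z-score. This score was averaged across arrays of the same protein sequence at different concentrations or buffers and across linkers, and negative values can be read as non-binding.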
# [2] = molecular target: Gal(b1-3)GlcNAc(b1-2)Man(a1-3)[Gal(b1-3)GlcNAc(b1-2)Man(a1-6)]Man(b1-4)GlcNAc(b1-4)[Fuc(a1-6)]GlcNAc
# Outline: as §1
# [3] = molecular target: Gal(b1-3)GlcNAc(b1-2)Man(a1-3)[GlcNAc(b1-4)][Gal(b1-3)GlcNAc(b1-2)Man(a1-6)]Man(b1-4)GlcNAc(b1-4)GlcNAc
# Outline: as §1
# [4] = molecular target: Gal(b1-3)GlcNAc(b1-2)[Gal(b1-3)GlcNAc(b1-6)]Man(a1-6)[Gal(b1-3)GlcNAc(b1-2)Man(a1-3)]Man(b1-4)GlcNAc(b1-4)GlcNAc
# Outline: as §1
# [5] = molecular target: Gal(b1-3)GlcNAc(b1-3)Gal(b1-3)GlcNAc
# Outline: as §1
# [6] = molecular target: Gal(b1-3)GlcNAc(b1-3)Gal(b1-4)Glc
# Outline: as §1
# [7] = molecular target: Gal(b1-3)GlcNAc(b1-3)Gal(b1-4)GlcNAc
# Outline: as §1
# [8] = molecular target: Gal(b1-3)GlcNAc(b1-3)Gal(b1-4)GlcNAc(b1-2)Man(a1-3)[Gal(b1-3)GlcNAc(b1-3)Gal(b1-4)GlcNAc(b1-2)Man(a1-6)]Man(b1-4)GlcNAc(b1-4)GlcNAc
# Outline: as §1
# [9] = molecular target: Gal(b1-3)GlcNAc(b1-3)Gal(b1-4)GlcNAc(b1-2)[Gal(b1-3)GlcNAc(b1-3)Gal(b1-4)GlcNAc(b1-6)]Man(a1-6)[Gal(b1-3)GlcNAc(b1-3)Gal(b1-4)GlcNAc(b1-2)Man(a1-3)]Man(b1-4)GlcNAc(b1-4)[Fuc(a1-6)]GlcNAc
# Outline: as §1
# [10] = molecular target: Gal(b1-3)GlcNAc(b1-3)Gal(b1-4)GlcNAc(b1-3)Gal(b1-4)GlcNAc(b1-2)[Gal(b1-3)GlcNAc(b1-3)Gal(b1-4)GlcNAc(b1-3)Gal(b1-4)GlcNAc(b1-6)]Man(a1-6)[Gal(b1-3)GlcNAc(b1-3)Gal(b1-4)GlcNAc(b1-3)Gal(b1-4)GlcNAc(b1-2)Man(a1-3)]Man(b1-4)GlcNAc(b1-4)[Fuc(a1-6)]GlcNAc
# Outline: as §1
# [11] = molecular target: Gal(b1-3)GlcNAc(b1-3)Gal(b1-4)GlcNAc(b1-6)[Gal(b1-3)GlcNAc(b1-3)]Gal(b1-4)Glc
# Outline: as §1
# [12] = molecular target: Gal(b1-3)GlcNAc(b1-3)Gal(b1-4)[Fuc(a1-3)]GlcNAc
# Outline: as §1
# [13] = molecular target: Gal(b1-3)GlcNAc(b1-3)Gal(b1-4)[Fuc(a1-3)]GlcNAc(b1-6)[Gal(b1-3)GlcNAc(b1-3)]Gal(b1-4)Glc
# Outline: as §1
# [14] = molecular target: Gal(b1-3)GlcNAc(b1-3)GalNAc
# Outline: as §1
# [15] = molecular target: Gal(b1-3)GlcNAc(b1-6)Gal(b1-4)GlcNAc
# Outline: as §1
# [16] = molecular target: Gal(b1-3)GlcNAc(b1-6)GalNAc
# Outline: as §1
# [17] = molecular target: Gal(b1-3)GlcNAc(b1-6)[Gal(b1-3)]GalNAc
# Outline: as §1
# Gal(b1-3)GlcNAc6S = molecular target: Gal(b1-3)GlcNAc6S
# Outline: as §1
# [18] = molecular target: Gal(b1-3)[Fuc(a1-4)]GlcNAc
# Outline: as §1
# [19] = molecular target: Gal(b1-3)[Fuc(a1-4)]GlcNAc(b1-2)Man
# Outline: as §1
# [20] = molecular target: Gal(b1-3)[Fuc(a1-4)]GlcNAc(b1-2)Man(a1-3)[Gal(b1-3)[Fuc(a1-4)]GlcNAc(b1-2)Man(a1-6)]Man(b1-4)GlcNAc(b1-4)[Fuc(a1-6)]GlcNAc
# Outline: as §1
# [21] = molecular target: Gal(b1-3)[Fuc(a1-4)]GlcNAc(b1-3)Gal(b1-3)[Fuc(a1-4)]GlcNAc
# Outline: as §1
# [22] = molecular target: Gal(b1-3)[Fuc(a1-4)]GlcNAc(b1-3)Gal(b1-4)[Fuc(a1-3)]GlcNAc
# Outline: as §1
# [23] = molecular target: Gal(b1-3)[Fuc(a1-4)]GlcNAc(b1-6)GalNAc
# Outline: as §1
# [24] = molecular target: Gal(b1-3)[GlcNAc(b1-6)]GalNAc
# Outline: as §1
# [25] = molecular target: Gal(b1-3)[Neu5Ac(a2-6)]GalNAc
# Outline: as §1
# [26] = molecular target: Gal(b1-3)[Neu5Ac(a2-6)]GlcNAc(b1-4)Gal(b1-4)Glc
# Outline: as §1
# [27] = molecular target: Gal(b1-3)[Neu5Ac(b2-6)]GalNAc
# Outline: as §1
# Gal(b1-4)Gal = molecular target: Gal(b1-4)Gal
# Outline: as §1
# [28] = molecular target: Gal(b1-4)GalNAc(a1-3)[Fuc(a1-2)]Gal(b1-4)GlcNAc
# Outline: as §1
# [29] = molecular target: Gal(b1-4)GalNAc(b1-3)[Fuc(a1-2)]Gal(b1-4)GlcNAc
# Outline: as §1
# Gal(b1-4)Glc = molecular target: Gal(b1-4)Glc
# Outline: as §1
# Gal(b1-4)Glc6S = molecular target: Gal(b1-4)Glc6S
# Outline: as §1
# Gal(b1-4)GlcNAc = molecular target: Gal(b1-4)GlcNAc
# Outline: as §1
# [30] = molecular target: Gal(b1-4)GlcNAc(a1-6)Gal(b1-4)GlcNAc
# Outline: as §1
# Gal(b1-4)GlcNAc(b1-2)Man = molecular target: Gal(b1-4)GlcNAc(b1-2)Man
# Outline: as §1
# [31] = molecular target: Gal(b1-4)GlcNAc(b1-2)Man(a1-3)Man(b1-4)GlcNAc(b1-4)GlcNAc
# Outline: as §1
# [32] = molecular target: Gal(b1-4)GlcNAc(b1-2)Man(a1-3)[Gal(b1-4)GlcNAc(b1-2)Man(a1-6)]Man(b1-4)GlcNAc(b1-4)GlcNAc
# Outline: as §1
# [33] = molecular target: Gal(b1-4)GlcNAc(b1-2)Man(a1-3)[Gal(b1-4)GlcNAc(b1-2)Man(a1-6)]Man(b1-4)GlcNAc(b1-4)[Fuc(a1-6)]GlcNAc
# Outline: as §1
# [34] = molecular target: Gal(b1-4)GlcNAc(b1-2)Man(a1-3)[Gal(b1-4)GlcNAc(b1-2)Man(a1-6)][Gal(b1-4)GlcNAc(b1-4)]Man(b1-4)GlcNAc(b1-4)[Fuc(a1-6)]GlcNAc
# Outline: as §1
# [35] = molecular target: Gal(b1-4)GlcNAc(b1-2)Man(a1-3)[Gal(b1-4)GlcNAc(b1-2)Man(a1-6)][GlcNAc(b1-4)]Man(b1-4)GlcNAc(b1-4)[Fuc(a1-6)]GlcNAc
# Outline: as §1
# [36] = molecular target: Gal(b1-4)GlcNAc(b1-2)Man(a1-3)[GlcNAc(b1-2)Man(a1-6)]Man(b1-4)GlcNAc(b1-4)GlcNAc
# Outline: as §1
# [37] = molecular target: Gal(b1-4)GlcNAc(b1-2)Man(a1-3)[GlcNAc(b1-4)][Gal(b1-4)GlcNAc(b1-2)Man(a1-6)]Man(b1-4)GlcNAc(b1-4)GlcNAc
# Outline: as §1
# [38] = molecular target: Gal(b1-4)GlcNAc(b1-2)Man(a1-3)[Man(a1-6)]Man(b1-4)GlcNAc(b1-4)GlcNAc
# Outline: as §1
# [39] = molecular target: Gal(b1-4)GlcNAc(b1-2)Man(a1-6)Man(b1-4)GlcNAc(b1-4)GlcNAc
# Outline: as §1
binder,measurement,setting,value
"Dectin2 (Homo sapiens), Q6EIG7 (protein) MMQEQQPQSTEKRGWLSLRLWSVAGISIALLSACFIVSCVVTYHFTYGETGKRLSELHSYHSSLTCFSEGTKVPAWGCCPASWKSFGSSCYFISSEEKVWSKSEQNCVEMGAHLVVFNTEAEQNFIVQQLNESFSYFLGLSDPQGNNNWQWIDKTPYEKNVRFWHLGEPNHSAEQCASIVFWKPTGWGWNDVICETRRNSICEMNKIYL",glycan array binding signal (z-score),[1],0.019
same,glycan array binding signal (z-score),[2],-0.07
same,glycan array binding signal (z-score),[3],0.087
same,glycan array binding signal (z-score),[4],-0.034
same,glycan array binding signal (z-score),[5],-0.181
same,glycan array binding signal (z-score),[6],-0.176
same,glycan array binding signal (z-score),[7],-0.194
same,glycan array binding signal (z-score),[8],0.015
same,glycan array binding signal (z-score),[9],1.31
same,glycan array binding signal (z-score),[10],0.899
same,glycan array binding signal (z-score),[11],-0.178
same,glycan array binding signal (z-score),[12],-0.142
same,glycan array binding signal (z-score),[13],-0.191
same,glycan array binding signal (z-score),[14],-0.196
same,glycan array binding signal (z-score),[15],-0.177
same,glycan array binding signal (z-score),[16],-0.187
same,glycan array binding signal (z-score),[17],-0.128
same,glycan array binding signal (z-score),Gal(b1-3)GlcNAc6S,-0.172
same,glycan array binding signal (z-score),[18],-0.15
same,glycan array binding signal (z-score),[19],0.096
same,glycan array binding signal (z-score),[20],0.583
same,glycan array binding signal (z-score),[21],-0.137
same,glycan array binding signal (z-score),[22],-0.163
same,glycan array binding signal (z-score),[23],-0.115
same,glycan array binding signal (z-score),[24],-0.175
same,glycan array binding signal (z-score),[25],0.069
same,glycan array binding signal (z-score),[26],-0.194
same,glycan array binding signal (z-score),[27],-0.187
same,glycan array binding signal (z-score),Gal(b1-4)Gal,-0.187
same,glycan array binding signal (z-score),[28],-0.162
same,glycan array binding signal (z-score),[29],-0.075
same,glycan array binding signal (z-score),Gal(b1-4)Glc,-0.131
same,glycan array binding signal (z-score),Gal(b1-4)Glc6S,-0.188
same,glycan array binding signal (z-score),Gal(b1-4)GlcNAc,-0.133
same,glycan array binding signal (z-score),[30],-0.203
same,glycan array binding signal (z-score),Gal(b1-4)GlcNAc(b1-2)Man,-0.087
same,glycan array binding signal (z-score),[31],-0.158
same,glycan array binding signal (z-score),[32],-0.213
same,glycan array binding signal (z-score),[33],-0.09
same,glycan array binding signal (z-score),[34],-0.192
same,glycan array binding signal (z-score),[35],-0.188
same,glycan array binding signal (z-score),[36],-0.202
same,glycan array binding signal (z-score),[37],-0.139
same,glycan array binding signal (z-score),[38],0.351
same,glycan array binding signal (z-score),[39],-0.163

# From the supplement of paper PMC8728848
